Laboratory results from PubChem BioAssay (NCATS).
This list was built around the results that the source calls inconclusive (neither active nor inactive); the mix of calls is not that of the screen. Potencies of inconclusive entries are left out as doubtful fits. Activity calls are given as the source filed them. Calls follow the shape of the dose curve; as a rule, active = well fitted inhibition curve with a large enough effect; inconclusive = small, poorly fitted or top-dose-only effect; inactive = no such curve, though single readings can be large or run the other way.

Experiment: qHTS assay for measurement of the activity of small molecule inhibitors on Zika virus induced Caspase-3 activity in human astrocytoma cells (AID 1224859);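 as to activity change, negative = inhibition: plate controls were ZIKV-infected untreated cells for no effect and uninfected cells for full effect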
Conditions: SNB-19 ZIKV-induced caspase-3/7, luminescence, 6 h; series mostly up to 45.7 µM; activity change, negative = inhibition: at the top concentration
Procedure, shortened: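 Percent inhibition of virus-induced caspase-3/7 signal is calculated against uninfected and ZIKV-infected control cells. Cells are SNB-19, infected at 2 FFU/cell for 6 h after 1 h compound exposure.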
Potency is read from the fitted curve at half-maximal effect; tags tell the direction and shape of the fitted curve.

| SMILES | activity change, negative = inhibition | Potency |
| --- | --- | --- |
| CCOc1cc(NC(C)=O)ccc1C(=O)OC | inactive: 1.68% |  |
| CC(C)Cc1ccc(C(C)C(=O)O)cc1 (stereo not drawn) |  | inconclusive [inhibitor, single point] |
| CC(C)(C)c1ccc(C(=O)CCCN2CCC(OC(c3ccccc3)c3ccccc3)CC2)cc1 |  | inactive |

Experiment: qHTS Screen of the MIPE 4.0 Collection Against Ewings Sarcoma (RDES) (AID 1259252); also: nearly all actives have a fitted effect of over 35% in size
Conditions: RD-ES Ewing sarcoma viability, CellTiter-Glo, 48 h; series mostly up to 45.8 µM; viability (percent of control): at the top concentration
Procedure, shortened: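 Cells plated in serum-containing RPMI (5% FBS) and treated with compound dilutions for 48 h. Readout luminescent viability; normalization relied on vehicle (no inhibition) and media-only columns (full inhibition).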

| SMILES | Potency |
| --- | --- |
| CC(C)[C@H](CO)Nc1nc(Nc2ccc(C(=O)O)c(Cl)c2)c2ncn(C(C)C)c2n1 | inconclusive [inhibitor, full curve, poor fit] |
| CC(C)(C(=O)NCC(F)(F)C(F)(F)F)C(=O)N[C@@H]1C(=O)Nc2ccccc2-c2ccccc21 | inconclusive [inhibitor, single point] |
| O=c1cc(CN2CCOCC2)occ1OCCCCCSc1ccnc2cc(C(F)(F)F)ccc12 | inconclusive [inhibitor, single point] |
| COc1ccc(-c2coc3cc(O)cc(O)c3c2=O)cc1 | inconclusive [inhibitor, single point] |
| N[C@H](CSC(c1ccccc1)(c1ccccc1)c1ccccc1)C(=O)O | inconclusive [inhibitor, single point] |
| CCCn1c(=O)c2[nH]c(C34CC5CC3C[C@@H](C5)C4)nc2n(CCC)c1=O | inconclusive [inhibitor, single point] |
| COCCCN1CCC(NC(=O)c2cc(Cl)c(N)c3c2OCC3)CC1 | inconclusive [inhibitor, single point] |
| O=C1CCc2ccc(OCCCCN3CCN(c4cccc(Cl)c4Cl)CC3)cc2N1 | inconclusive [inhibitor, partial curve, poor fit] |
| CNCc1ccc(-c2[nH]c3cc(F)cc4c3c2CCNC4=O)cc1 | inconclusive [inhibitor, partial curve] |
| CC(C=CC1=C(C)CCCC1(C)C)=CC=CC(C)=CC(=O)O | inconclusive [inhibitor, partial curve] |
| Cc1cc(C(C)(C)C)c(O)c(C)c1CC1=NCCN1 | inconclusive [inhibitor, single point] |
| O=C(O)c1cccc(-c2noc(-c3ccccc3F)n2)c1 | inconclusive [inhibitor, partial curve, poor fit] |
| CC(C)C(=O)Nc1ncc(-c2cc(C(F)F)nn2-c2c(Cl)cccc2Cl)s1 | inconclusive [inhibitor, single point] |
| CS(=O)(=O)CCNCc1ccc(-c2ccc3ncnc(Nc4ccc(OCc5cccc(F)c5)c(Cl)c4)c3c2)o1 | active: 0.59 µM |
| COC(=O)C1=CO[C@@H](O)[C@@H]2C(CO)=CC[C@@H]12 | inconclusive [inhibitor, partial curve, poor fit] |
| Cc1ccccc1C(C(=O)NC1CCCC1)N(C(=O)Cn1cnc2ccccc21)c1cccc(F)c1 (stereo not drawn) | inconclusive [inhibitor, partial curve, poor fit] |
| COc1cc(Oc2ccnc3cc(OC)c(OC)cc23)ccc1NC(=O)NC(C)c1nccs1 (stereo not drawn) | inconclusive [inhibitor, single point] |
| O=C(N[C@@H](c1ccccc1)[C@@H]1CCCCN1)c1cccc(C(F)(F)F)c1Cl | inconclusive [inhibitor, single point] |
| CC1Cc2ccccc2N1NC(=O)c1ccc(Cl)c(S(N)(=O)=O)c1 (stereo not drawn) | inconclusive [inhibitor, partial curve, poor fit] |
| Cc1ccc(F)c(NC(=O)Nc2ccc(-c3cccc4[nH]nc(N)c34)cc2)c1 | inconclusive [inhibitor, single point] |
| O=c1[nH]cc(F)c(=O)[nH]1 | active: 5.26 µM |
| Oc1ccc2ccccc2c1SSc1c(O)ccc2ccccc12 | inconclusive [inhibitor, single point] |
| COc1cc2c(Oc3ccc(NC(=O)C4(C(=O)Nc5ccc(F)cc5)CC4)cc3F)ccnc2cc1OCCCN1CCOCC1 | active: 16.6 µM |
| C[C@@H]1CN(Cc2ccc(F)cc2)[C@@H](C)CN1C(=O)c1cc2c(C(=O)C(=O)N(C)C)cn(C)c2cc1Cl | inconclusive [inhibitor, single point] |
| N#Cc1ccc(NC(=O)Nc2ccccc2Br)c2n[nH]nc12 | inconclusive [inhibitor, partial curve] |
